Data on 115 sequences can be found in the BET-seq Pho4 binding data (Le et al. 2018).

Some of the results follow. These are noisy estimates, calculated here from bound and input reads.

The target of the experiment is T1, Pho4 (S. cerevisiae) (UniProt P07270).
T1 sequence: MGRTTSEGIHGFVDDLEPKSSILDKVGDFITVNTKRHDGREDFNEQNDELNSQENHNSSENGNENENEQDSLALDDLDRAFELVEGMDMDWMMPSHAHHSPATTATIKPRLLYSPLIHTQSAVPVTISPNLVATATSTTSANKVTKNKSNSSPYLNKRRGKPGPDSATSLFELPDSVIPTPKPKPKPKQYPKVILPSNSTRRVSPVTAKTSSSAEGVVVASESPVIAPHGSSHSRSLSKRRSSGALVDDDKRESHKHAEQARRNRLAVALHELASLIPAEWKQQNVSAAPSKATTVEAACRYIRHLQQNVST
The experiment can be described thus: relative binding free energy (BET-seq); higher = weaker binding. Particulars: reference: library average.
Take CGGATCACGTGGGAAT: the “relative binding free energy” value was found to be 0.2 kcal/mol.
As for GGGGCCACGTGTTTCG, the “relative binding free energy” value was 0.09 kcal/mol.
For TCTAGCACGTGGTGAG, the “relative binding free energy” value was -0.15 kcal/mol.
Then CTTCACACGTGGTTGT, with 0.14 kcal/mol; and TAAGTCACGTGCGTAG, with 0.22 kcal/mol.
TAGTGCACGTGGGATG: the “relative binding free energy” value was -0.19 kcal/mol.
With TTGTACACGTGTTAGG, the “relative binding free energy” value was found to be 0.13 kcal/mol.
GGGTTCACGTGGCTTA: the “relative binding free energy” value was 0.25 kcal/mol.
The value for GAGGGCACGTGGGTTA was -0.12 kcal/mol.
For the sequence AGGGGCACGTGTGAAT, the “relative binding free energy” value was -0.04 kcal/mol.
Turning to TCGGGCACGTGGTAGA, the “relative binding free energy” value was -0.05 kcal/mol.
For TACTACACGTGGTAGG, the “relative binding free energy” value is 0.03 kcal/mol.
For the sequence TGTCACACGTGGGTAT, the “relative binding free energy” value is -0.1 kcal/mol.
With AATTTCACGTGGCTTA, the “relative binding free energy” value came to 0.22 kcal/mol.
The value for GGTTACACGTGAGTAC was 0.43 kcal/mol.
Consider CTTCACACGTGGTGTG, for which the “relative binding free energy” value is 0.07 kcal/mol.
As to TGAAGCACGTGTGCTG, the “relative binding free energy” value was -0.07 kcal/mol.
As to TCCGGCACGTGAGGGG, the “relative binding free energy” value stood at 0.14 kcal/mol.
As to ATAAGCACGTGGGGAT, the “relative binding free energy” value was -0.22 kcal/mol.
In the case of GGGCACACGTGGCGGG, the “relative binding free energy” value is -0.01 kcal/mol.
Then TGCGGCACGTGGTGGA, with -0.12 kcal/mol.
GATGTCACGTGTTCTT: the “relative binding free energy” value was found to be 0.15 kcal/mol.
In the case of TGTTGCACGTGATGCT, the “relative binding free energy” value was -0.11 kcal/mol.
Consider TGGCTCACGTGTTAAT, for which the “relative binding free energy” value was 0.31 kcal/mol.
Regarding CTATGCACGTGTGGAG, the “relative binding free energy” value came to 0.01 kcal/mol.
Take GGTAACACGTGAATTG: the “relative binding free energy” value is 0.15 kcal/mol.
The value for TTTTCCACGTGGTGCG was -0.07 kcal/mol; that for CGGATCACGTGTCGTG was 0.14 kcal/mol; that for GTATACACGTGAAGTA was 0.37 kcal/mol.
Turning to TTGATCACGTGGACAT, the “relative binding free energy” value was 0.28 kcal/mol.
For the sequence CAAGTCACGTGTGATT, the “relative binding free energy” value came out at 0.21 kcal/mol.
Then GGGTCCACGTGCCGGT, with 0.11 kcal/mol.
Then TTGATCACGTGTAGTA, with 0.21 kcal/mol; and TACTTCACGTGATTGT, with 0.18 kcal/mol; and ATGCGCACGTGTTAGG, with -0.13 kcal/mol.
The value for TGCGACACGTGGGCGT was -0.3 kcal/mol.
Take TCTGGCACGTGCAGGG: the “relative binding free energy” value is -0.07 kcal/mol.
As to ATTGTCACGTGCAAAG, the “relative binding free energy” value is 0.1 kcal/mol.
In the case of GTCGGCACGTGTTTTA, the “relative binding free energy” value is 0.14 kcal/mol.
The value for TGACTCACGTGTTTGG was 0.23 kcal/mol; that for GTGGTCACGTGGGACT was 0.04 kcal/mol; that for ATCTTCACGTGTGAGG was 0.17 kcal/mol.
Turning to TGGTTCACGTGCACGG, the “relative binding free energy” value is 0.28 kcal/mol.
In the case of ATGAACACGTGGGGCT, the “relative binding free energy” value was -0.06 kcal/mol.
As for ATTGTCACGTGGAATG, the “relative binding free energy” value came out at 0.29 kcal/mol.
Turning to TTTGACACGTGCGGAA, the “relative binding free energy” value turned out to be 0.02 kcal/mol.
Take GGTGTCACGTGGAAAA: the “relative binding free energy” value is 0.43 kcal/mol.
Regarding TTTCGCACGTGGTCTT, the “relative binding free energy” value was -0.26 kcal/mol.
With ATAGGCACGTGGTCGA, the “relative binding free energy” value was -0.08 kcal/mol.
Regarding TAGGCCACGTGTCGTG, the “relative binding free energy” value was -0.08 kcal/mol.
Consider AGTGTCACGTGACGGT, for which the “relative binding free energy” value came to 0.17 kcal/mol.
The value for TTTGACACGTGTGTCT was -0.04 kcal/mol; that for CAGTGCACGTGGGTCG was -0.1 kcal/mol; that for GTGTTCACGTGGCGTT was 0.17 kcal/mol.
Take GTGTGCACGTGCTGTA: the “relative binding free energy” value was -0.09 kcal/mol.
For AAGTTCACGTGATGAT, the “relative binding free energy” value was 0.36 kcal/mol.
For the sequence TTGTGCACGTGAGCTG, the “relative binding free energy” value is 0.21 kcal/mol.
Then ATCTGCACGTGCTGGT, with 0.06 kcal/mol; and CGTTGCACGTGCGGGG, with -0.04 kcal/mol.
With AAATACACGTGTGTAT, the “relative binding free energy” value was 0.05 kcal/mol.
Then TGTAACACGTGAAGGT, with 0.26 kcal/mol; and CAAGGCACGTGTGTTA, with -0.09 kcal/mol.
As to TGGGCCACGTGTTGTT, the “relative binding free energy” value is -0.15 kcal/mol.
As for GTATGCACGTGAGGAA, the “relative binding free energy” value was found to be 0.26 kcal/mol.
For AGGCACACGTGCGGGG, the “relative binding free energy” value was -0.05 kcal/mol.
As to CGGTGCACGTGCGCGG, the “relative binding free energy” value is -0.17 kcal/mol.
For GGTTTCACGTGGGTCC, the “relative binding free energy” value stood at 0.37 kcal/mol.
Consider TTTAACACGTGGGGGG, for which the “relative binding free energy” value was -0.14 kcal/mol.
Turning to AGATGCACGTGGCGTA, the “relative binding free energy” value was -0.1 kcal/mol.
On to ATTTACACGTGCTATT, for which the “relative binding free energy” value is 0.02 kcal/mol.
Turning to GTAAGCACGTGCGTTA, the “relative binding free energy” value was -0.04 kcal/mol.
The value for AGTTGCACGTGGCTTG was -0.06 kcal/mol; that for TTTTACACGTGTTGTA was 0.11 kcal/mol; that for GAATACACGTGCGGTG was 0.15 kcal/mol.
Then AGTAGCACGTGGAATG, with -0.06 kcal/mol; and TGAGTCACGTGTCTTT, with 0.25 kcal/mol.
As for GTGTCCACGTGGTTTG, the “relative binding free energy” value is 0.07 kcal/mol.
CTAAGCACGTGTGAGG: the “relative binding free energy” value is -0.02 kcal/mol.
Take TGGAGCACGTGCAAGG: the “relative binding free energy” value was 0.02 kcal/mol.
For the sequence GTTAACACGTGGGTGA, the “relative binding free energy” value was -0.22 kcal/mol.
GTAGACACGTGGCAGT: the “relative binding free energy” value worked out at 0.03 kcal/mol.
With GTTTACACGTGGAGTG, the “relative binding free energy” value worked out at 0.16 kcal/mol.
Then TTTATCACGTGCGTAT, with 0.19 kcal/mol.
The value for ACGTGCACGTGGTTGT was -0.23 kcal/mol; that for GGTTGCACGTGGCCTT was -0.11 kcal/mol; that for GATGTCACGTGCATGT was 0.05 kcal/mol.
On to TTTTCCACGTGTGGTT, for which the “relative binding free energy” value is 0.09 kcal/mol.
Regarding TGCGGCACGTGGTTTT, the “relative binding free energy” value was -0.14 kcal/mol.
Regarding GGTCGCACGTGATAGT, the “relative binding free energy” value was determined as 0.22 kcal/mol.
In the case of GACAGCACGTGCGGTG, the “relative binding free energy” value came to 0.03 kcal/mol.
With CAGGTCACGTGGTCGT, the “relative binding free energy” value was -0.1 kcal/mol.
Take TCGTGCACGTGACGTG: the “relative binding free energy” value was determined as 0.05 kcal/mol.
In the case of TTTGACACGTGGAAAT, the “relative binding free energy” value came to 0.06 kcal/mol.
As for GGATTCACGTGGGTAT, the “relative binding free energy” value was 0.12 kcal/mol.
As for TAGTTCACGTGAACGG, the “relative binding free energy” value was 0.36 kcal/mol.
Turning to TAAGGCACGTGGTAAG, the “relative binding free energy” value was -0.09 kcal/mol.
The value for GAGTACACGTGAGGGA was 0.39 kcal/mol; that for TCTGTCACGTGGCAGG was 0 kcal/mol; that for AGGTTCACGTGGGTGC was 0.19 kcal/mol.
Take GTGGTCACGTGTTGGC: the “relative binding free energy” value was determined as 0.15 kcal/mol.
Take GTAACCACGTGGGGTA: the “relative binding free energy” value is -0.24 kcal/mol.
As for CTCGTCACGTGCGGGT, the “relative binding free energy” value came to 0.05 kcal/mol.
Consider TAAGACACGTGTTTGG, for which the “relative binding free energy” value was found to be 0.05 kcal/mol.
As to GAGGTCACGTGCTGTT, the “relative binding free energy” value stood at 0.16 kcal/mol.
ATCTGCACGTGTCGTG: the “relative binding free energy” value is -0.02 kcal/mol.
As for GGTTTCACGTGATGTC, the “relative binding free energy” value was 0.39 kcal/mol.
As to CGGGGCACGTGTTGTC, the “relative binding free energy” value stood at 0.01 kcal/mol.
On to CACGGCACGTGGTTGT, for which the “relative binding free energy” value is -0.09 kcal/mol.
Then TTTGGCACGTGAGGGT, with 0.22 kcal/mol.
Turning to TGCGTCACGTGATGGT, the “relative binding free energy” value worked out at 0.16 kcal/mol.
ATGTGCACGTGACTGT: the “relative binding free energy” value came out at 0.09 kcal/mol.
For GGGTACACGTGCTTTA, the “relative binding free energy” value was determined as 0.09 kcal/mol.
On to GGTTTCACGTGTACTG, for which the “relative binding free energy” value was found to be 0.18 kcal/mol.
Then ACTTGCACGTGGCGTT, with -0.06 kcal/mol; and ACCTGCACGTGTTGGG, with 0.06 kcal/mol.
